Laboratory results as given in PubChem BioAssay AID1345082 (National Center for Advancing Translational Sciences (NCATS), 2018).
About 4,000 (4.3%) of roughly 94,000 compounds were called active. The shares of active, inactive and inconclusive entries below differ from those in the screen. The call rests on the fitted dose curve; in most records, active means well fitted inhibition curve with a large enough effect; inconclusive means small, poorly fitted or top-dose-only effect; inactive means no such curve, though single readings can be large or run the other way. Potencies of inconclusive entries are doubtful fits and often do not repeat.

assay: Cytotoxic Profiling in NIH 3T3 Cell Line of Diverse Libraries Using Quantitative High-Throughput Screening; settings: NIH 3T3 viability, CellTiter-Glo ATP luminescence, 48-72 h; activity change, negative = cytotoxicity: at 96.7 µM (top of the series) unless noted; series mostly up to 96.7 µM; further: nearly all actives have a fitted effect of over 55% in size
Outline: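 Viability of NIH 3T3 cells after 48 or 72 hr compound treatment at 37 °C was assessed by CellTiter-Glo, with luminescence imaged following a 10 min room-temperature step.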
On the % scale 0 is the no-effect control and ±100 the full control effect; potency means the concentration at half of the fitted maximal effect; tags describe the fitted curve by direction and shape.

| Compound | Potency | activity change, negative = cytotoxicity |
| --- | --- | --- |
| Cc1ccc(-n2nc(C)c([C@@H]3C=C[C@@H](NC(=O)CC(C)(C)CC(=O)O)C3)c2C)cc1Cl | inconclusive: 10 µM [inhibitor, full curve, poor fit] |  |
| CC(=O)N1CCCC(N2C(=O)c3c(c(C)nn3-c3ccccc3)C2C2CC2)C1 (stereo unspecified) | inconclusive: 63.1 µM [inhibitor, partial curve, poor fit] |  |
| CC(C)CCN1C(=O)CC[C@]2(C(=O)NCc3cccc(Cl)c3)CCCC[C@@H]12 | inconclusive: 70.8 µM [inhibitor, single point] |  |
| O=C(NCC1CC1)C1CCN(Cc2ccccc2-c2cccnc2)CC1 |  | inactive: -24.3% |
| CC(C)(C)C(=O)NC1CCCN(c2ccc3nnc(C4CC4)n3n2)C1 (stereo unspecified) |  | inactive: -4.58% |
| COc1ccc(-c2cn3cc(C(=O)N4CCCC4)nc3c(=O)n2CC2CC2)c(F)c1 | active: 31.6 µM |  |
| COc1ccc(CN2CCn3c(nn(-c4ccncc4)c3=O)C2)cc1 | inconclusive: 56.2 µM [inhibitor, partial curve, poor fit] |  |
| O=C(c1cccc(Cl)c1)N1CCC(n2cc(-c3nc(-c4ccccc4)no3)nn2)CC1 | inconclusive: 2.82 µM [inhibitor, full curve, poor fit] |  |
| O=C(COc1ccccc1)N[C@H]1CO[C@H]2[C@@H]1OC[C@@H]2n1nnnc1-c1ccc2c(c1)OCO2 | inconclusive: 31.6 µM [inhibitor, partial curve, poor fit] |  |
| COc1cccc(C(=O)N2CCC(C(=O)N3CCC4(CC3)CC(=O)Nc3ccccc3O4)CC2)c1 |  | inactive: -8.72% |
| Cc1ccc(C)c(-n2nc(-c3c(C)nc4scc(CC(=O)N5CCCC5)n4c3=O)cc2C)c1 |  | inactive: -22.8% |
| Cc1ccccc1OCC(=O)NC1CCN(c2cc(-c3ccccc3)[nH]n2)CC1 | inconclusive: 12.6 µM [inhibitor, full curve, poor fit] |  |
| CCN(CCOC)Cc1cn(C)nc1-c1ccc(C2CCCCC2)cc1 | inconclusive: 56.2 µM [inhibitor, partial curve, poor fit] |  |
| COC[C@@]12CN(Cc3ccc(C(=O)OC)cc3)C[C@@H]1C(C)(C)COc1ccc(OC)cc12 | inconclusive: 50.1 µM [inhibitor, partial curve, poor fit] |  |
| O=C(COc1ccccc1)N1CCc2c(n(Cc3cccnc3)n(-c3ccccc3)c2=O)C1 | inconclusive: 35.5 µM [inhibitor, full curve] |  |
| COc1ccc(-c2noc([C@@H]3CCCN3C(=O)Cc3ccccc3C)n2)cc1OC | inconclusive: 44.7 µM [inhibitor, partial curve, poor fit] |  |
| CC1=C[C@@H](CNCCN2CCOCC2)[C@H](C(C)C)C[C@H]1Cc1nnc(-c2ccccc2)o1 | inconclusive: 50.1 µM [inhibitor, partial curve, poor fit] |  |
| CNC(=O)c1cc(C2CC2)nc2c1c(C1CCCN1C(=O)c1cccc(Cl)c1)nn2C (stereo unspecified) |  | inactive: -1.88% |
| CCOC(=O)c1cccc(NC(=O)N2CC[C@@H](CC(=O)NCCOC)[C@@H](CC)C2)c1 | inconclusive: 112 µM [inhibitor, partial curve, poor fit] |  |
| COc1ccc(-c2nc(C3CC3)nc3c2CCN([S+](=O)([O-])c2cccs2)CC3)cc1 | inconclusive: 28.2 µM [inhibitor, partial curve] |  |
| CC(C)(Oc1nn(CC2CCOCC2)c2ccccc12)C(=O)NCCc1ccccc1 | inconclusive: 89.1 µM [inhibitor, partial curve] |  |

| Compound | Potency | activity change, negative = cytotoxicity |
| --- | --- | --- |
| CN(CCNC(=O)c1cc2cn(C3CC3)cc2s1)C1CCCCC1 |  | inactive: -11.1% |
| Cc1ccccc1Oc1c(CCC(=O)NC2CC2)c(C)nn1-c1ccc(F)cc1 | inconclusive: 50.1 µM [inhibitor, partial curve, poor fit] |  |
| O=C(NC1CCN(c2ccnc3ccnn23)C1)c1ccc(F)cc1 (stereo unspecified) |  | inactive: -38% [at 138 µM] |
| Cc1ccc(-c2cn[nH]c2C2CCCN(C(=O)c3[nH]ncc3Cl)C2)cc1 (stereo unspecified) | inconclusive: 35.5 µM [inhibitor, partial curve, poor fit] |  |
| Cc1cc(N)n(CC(=O)N[C@@H]2COCC[C@@H]2OCc2c(C)noc2C)n1 |  | inactive: -6.92% |
| O=C(NCCc1ccc(Cl)cc1)c1ccc2nnc(-c3ccc(Cl)cc3)n2c1 | inconclusive: 50.1 µM [inhibitor, partial curve, poor fit] |  |
| Cn1cc(C(O)c2nc(Nc3ccc(OC(F)(F)F)cc3)n[nH]2)cn1 (stereo unspecified) | inconclusive: 112 µM [inhibitor, single point] |  |
| O=S(=O)(c1ccccc1F)N1CC(c2nc(-c3ccncc3)no2)C1 | inconclusive: 44.7 µM [inhibitor, partial curve, poor fit] |  |
| CN1CCCCC(CC(=O)N2CCCc3ccccc32)C1=O (stereo unspecified) |  | inactive: -14.7% |
| CCNC(=O)N1CCC(c2noc(COc3ccc(C)cc3)n2)CC1 | inconclusive: 44.7 µM [inhibitor, partial curve, poor fit] |  |
| CCCS(=O)(=O)N1CCC2(CC1)CN(C(C)=O)CC2COC (stereo unspecified) |  | inactive: 0.729% |
| COc1ccc(-c2cc(CC3(NCCC(C)C)COC3)no2)cc1 | inconclusive: 79.4 µM [inhibitor, partial curve, poor fit] |  |
| Cc1ccsc1C(=O)N1CCC(n2cc(-c3nc(-c4ccccc4)no3)nn2)C1 (stereo unspecified) | inconclusive: 11.2 µM [inhibitor, full curve] |  |
| Cc1cc2ncc(C(=O)NCc3cccc4ccccc34)cn2n1 | inconclusive: 79.4 µM [inhibitor, partial curve] |  |
| O=C(Nc1ccc(Cl)cc1)N1CCn2c(nnc2-c2ccccc2)C1 |  | inactive: -28.9% |
| Cc1cccnc1NCCNc1nc(C(C)C)nc2c1cnn2C | inconclusive: 56.2 µM [inhibitor, partial curve, poor fit] |  |
| CN(C(=O)c1cccc2ccccc12)C1CCCN(C2Cc3ccccc3C2)C1 (stereo unspecified) | inconclusive: 79.4 µM [inhibitor, partial curve, poor fit] |  |
| Cc1nn(-c2ccc(C(F)(F)F)cc2)c(C)c1[C@@H]1C=C[C@@H](NS(=O)(=O)c2ccccc2)C1 | active: 39.8 µM |  |
| O=C(c1cccc(C(F)(F)F)c1)N1CCOCC2(CN(Cc3cc(F)cc(F)c3)C2)C1 |  | inactive: -84.2% [at 138 µM] |
| COc1ccc(Cl)cc1-c1ccc2c(c1)C(=O)N1C[C@@H](NS(=O)(=O)c3ccc(F)cc3)C[C@H]1C(=O)N2 | inconclusive: 17.8 µM [inhibitor, full curve, poor fit] |  |
| CCNC(=O)CCc1c(C)nn(-c2ccc(F)cc2)c1Oc1ccc(F)cc1F | inconclusive: 56.2 µM [inhibitor, partial curve, poor fit] |  |

| Compound | Potency | activity change, negative = cytotoxicity |
| --- | --- | --- |
| O=C(C[C@@H]1CCNC[C@@H]1Cc1cc(COc2ccccc2)on1)NCc1ccc(F)cc1 | inconclusive: 50.1 µM [inhibitor, partial curve, poor fit] |  |
| O=S(=O)(N[C@H]1CO[C@H]2[C@@H]1OC[C@@H]2Nc1nccc(C2CCCC2)n1)c1cccc2cccnc12 |  | inactive: -36.4% |
| O=C(Nc1ncc(-c2ccccc2)c2c1OCC2)C1CCOCC1 | inconclusive: 44.7 µM [inhibitor, full curve] |  |
| Cc1nc2n(c1C(=O)Nc1nccs1)CCC(Nc1ccccc1)C2 (stereo unspecified) | inconclusive: 89.1 µM [inhibitor, partial curve, poor fit] |  |
| O=C(NCc1ccc(F)cc1Cl)c1cc2n(n1)CC(c1ccc3c(c1)OCO3)OC2 (stereo unspecified) | inconclusive: 50.1 µM [inhibitor, partial curve, poor fit] |  |
| O=C1NC(=NC2CCCC2)C2(CCCN(Cc3ccsc3)C2)N1c1cc(F)cc(F)c1 (stereo unspecified) | inconclusive: 12.6 µM [inhibitor, full curve, poor fit] |  |
| Cc1ccc(Cl)cc1-n1nc(-c2c(C)nc3scc(CC(=O)NCCC(C)C)n3c2=O)cc1C | inconclusive: 44.7 µM [inhibitor, partial curve, poor fit] |  |
| COC1CCC12CCN(C(=O)c1nccc3ccccc13)CC2 (stereo unspecified) |  | inactive: 1.54% |
| CC(C)c1noc(CC2CCN(C(=O)c3ccccc3Cl)CC2)n1 | inconclusive: 44.7 µM [inhibitor, partial curve, poor fit] |  |
| O=C(Nc1ccc2c(N3CCCC3)ncnc2c1)c1cccc(Br)c1 | inconclusive: 6.31 µM [inhibitor, full curve, poor fit] |  |
| Cc1nn2c(c1-c1ccccc1N1CCCC1)N(C(=O)C(C)C)CCC2 | inconclusive: 89.1 µM [inhibitor, partial curve] |  |
| CC(C)CCN1CCOc2cc(C(=O)NCc3cccs3)ccc2C1 | inconclusive: 89.1 µM [inhibitor, partial curve, poor fit] |  |
| COC(=O)[C@@H]1Cc2ncn(Cc3ccccc3)c2CN1C(=O)c1cccs1 | inconclusive: 126 µM [inhibitor, single point] |  |
| C#CCNC(=O)c1cc(-c2ccc(C(F)(F)F)cc2)nc2c1cnn2C | inconclusive: 11.2 µM [inhibitor, full curve, poor fit] |  |
| CCCn1nccc1C(=O)N1CCCC(CCc2cccc(C(F)(F)F)c2)C1 (stereo unspecified) | inconclusive: 39.8 µM [inhibitor, partial curve] |  |
| Cc1csc(NC(=O)c2cnc3c(c2)N([S+](=O)([O-])c2cccnc2)CCC3)n1 | active: 100 µM |  |
| O=C1CCCCC(Cc2ccccc2)(C(=O)NCc2cccc(C(F)(F)F)c2)N1 (stereo unspecified) | inconclusive: 50.1 µM [inhibitor, partial curve, poor fit] |  |
| O=C(NCCC1CCCCC1)c1ccc2nccn2c1 | inconclusive: 79.4 µM [inhibitor, partial curve] |  |
| CC(C)c1ccc(CC(=O)N2CCCc3ncc(C(=O)NCCCn4ccnc4)cc32)cc1 |  | inactive: -26.3% |
